Measured values taken from the supplement of paper PMC5919970.
Structures can show the parent of a compound that is named as a salt. Whole data set: some 2,000 compounds, median “fractional viability relative to vehicle” near 0.91, cut for the lowest 2% near 0.045. This is one part of the list.

Test system: TYKNU
Assay: fractional viability relative to vehicle; TYKNU is a high-grade serous ovarian cancer line; higher = less growth inhibition
Conditions: 72 h
Procedure, shortened: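 Drug treatment lasted 72 h, with cells grown at 37 °C in 5% CO2 in RPMI 1640 supplemented with 10% FBS. Beforehand, TYKNU control cells or their lentiCRISPRv2 knockout derivatives had been seeded at 500 cells per well into drug-stamped 384-well plates carrying a ~2100-compound library at 2 or 10 μM, in duplicate. Viability came from Cell Titer Glo luminescence, with averaged duplicate treatment wells normalised to duplicate control wells in the same plate position.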

[1] = 2uM, genotype: DNM1L knockout (sgDNM1L #1)
[2] = 2uM, genotype: sgCTRLA1 (non-targeting control)
[3] = 10uM, genotype: DNM1L knockout (sgDNM1L #1)
[4] = 10uM, genotype: sgCTRLA1 (non-targeting control)

Row | Compound | fractional viability [1] | fractional viability [2] | fractional viability [3] | fractional viability [4]
1 | CC1=C(CC(=O)O)c2cc(F)ccc2/C1=C\c1ccc([S+](C)[O-])cc1 (stereo not drawn) [Sulindac] | 1.18 | 0.937 | 0.943 | 0.945
2 | C=CC(=O)Nc1ccc2ncnc(Nc3ccc(OCc4cccc(F)c4)c(Cl)c3)c2c1 | 0.704 | 0.853 | 0.044 | 0.0416
3 | Cc1nc(N)sc1-c1ccnc(Nc2ccc(N3CCOCC3)cc2)n1 | 0.619 | 0.722 | 0.29 | 0.249
4 | C[C@]12CC[C@@H]3c4ccc(O)cc4CC[C@H]3[C@@H]1C[C@@H](O)[C@@H]2O [Estriol] | 0.945 | 1.09 | 0.804 | 0.996
5 | C[C@@H]1CN(CC(=O)Nc2ccc3c(c2)Cc2cccc(-c4cc(=O)cc(N5CCOCC5)o4)c2S3)C[C@H](C)O1 | 0.779 | 0.717 | 0.397 | 0.363
6 | CCC[C@H](NC(=O)[C@@H]1[C@H]2CCC[C@H]2CN1C(=O)[C@@H](NC(=O)[C@@H](NC(=O)c1cnccn1)C1CCCCC1)C(C)(C)C)C(=O)C(=O)NC1CC1 [Telaprevir (VX-950)] | 1.14 | 1.1 | 0.668 | 0.827
7 | Cc1noc(NS(=O)(=O)c2ccc(N)cc2)c1C [Sulfisoxazole] | 1.07 | 1.1 | 0.847 | 1.03
8 | CCc1cccc2c3c([nH]c12)C(CC)(CC(=O)O)OCC3 (stereo not drawn) [Etodolac] | 0.996 | 1.21 | 0.863 | 1.21
9 | CCOC(=O)[C@H](CCc1ccccc1)N[C@@H](C)C(=O)N1CCC[C@H]1C(=O)O [Enalapril Maleate] | 0.858 | 1.24 | 0.86 | 1.01
10 | CNC(=O)[C@H](Cc1ccccc1)NC(=O)[C@H](CC(C)C)[C@H](CSc1cccs1)C(=O)NO [Batimastat (BB-94)] | 0.826 | 0.964 | 0.539 | 0.703
11 | CC[C@@H]1/C=C(\C)C[C@H](C)C[C@H](OC)[C@H]2O[C@@](O)(C(=O)C(=O)N3CCCC[C@H]3C(=O)O[C@H](/C(C)=C/[C@@H]3CC[C@H](Cl)[C@H](OC)C3)[C@H](C)[C@@H](O)CC1=O)[C@H](C)C[C@@H]2OC [Pimecrolimus] | 0.579 | 0.945 | 0.276 | 0.594
12 | COC[C@H](NC(=O)c1cnc(C)s1)C(=O)N[C@@H](COC)C(=O)N[C@@H](Cc1ccccc1)C(=O)[C@@]1(C)CO1 [Oprozomib (ONX 0912)] | 0.0658 | 0.0656 | 0.055 | 0.0445
13 | CCCCC(=O)N(Cc1ccc(-c2ccccc2-c2nnn[nH]2)cc1)[C@H](C(=O)O)C(C)C.CCOC(=O)[C@H](C)C[C@@H](Cc1ccc(-c2ccccc2)cc1)NC(=O)CCC(=O)O | 0.864 | 0.941 | 0.769 | 0.732
14 | Cc1cc(Nc2nc(N[C@@H](C)c3ncc(F)cn3)ncc2Cl)[nH]n1 | 0.835 | 0.944 | 0.742 | 0.599
15 | OC[C@H]1O[C@@H](O[C@@H]2[C@@H](CO)OC(O)(CO)[C@H]2O)[C@H](O)[C@@H](O)[C@H]1O (mixture of isomers) [Lactulose] | 1.05 | 1.01 | 1.04 | 1.18
16 | CN(C)[C@@H]1C(O)=C(C(N)=O)C(=O)[C@@]2(O)C(O)=C3C(=O)c4c(O)ccc(Cl)c4[C@@H](O)[C@H]3C[C@@H]12 [Demeclocycline HCl] | 1.14 | 1.31 | 0.778 | 0.995
17 | O=C(O)CC1CC(c2ccccc2)=NO1 (stereo not drawn) | 0.902 | 0.982 | 0.914 | 0.786
18 | CCN(c1cc(-c2ccc(CN3CCOCC3)cc2)cc(C(=O)NCc2c(C)cc(C)[nH]c2=O)c1C)C1CCOCC1 | 0.87 | 1.1 | 0.687 | 0.961
19 | Cn1c([N+](=O)[O-])cnc1COC(N)=O [Ronidazole] | 1.74 | 1.2 | 1.58 | 1.21

Row | Compound | fractional viability [1] | fractional viability [2] | fractional viability [3] | fractional viability [4]
20 | CN(CCOc1ccc(CC2SC(=O)NC2=O)cc1)c1ccccn1 (stereo not drawn) [Rosiglitazone maleate] | 0.971 | 1.1 | 0.833 | 1.04
21 | CN(CCOc1ccc(CC2SC(=O)NC2=O)cc1)c1ccccn1 (stereo not drawn) [Rosiglitazone] | 0.942 | 1.1 | 0.909 | 1.01
22 | CN(CCOc1ccc(CC2SC(=O)NC2=O)cc1)c1ccccn1 (stereo not drawn) [Rosiglitazone HCl] | 0.999 | 1.06 | 0.98 | 1.04
23 | CCOC(=O)c1c(C)n(C)c2ccc(O)cc12 [Mecarbinate] | 1.01 | 1.18 | 0.891 | 1.09
24 | COc1ccc(C[C@@H]2c3cc(OC)c(OC)cc3CC[N@+]2(C)CCC(=O)OCCCCCOC(=O)CC[N@@+]2(C)CCc3cc(OC)c(OC)cc3[C@H]2Cc2ccc(OC)c(OC)c2)cc1OC [Cisatracurium Besylate] | 0.944 | 1.02 | 0.738 | 0.918
25 | Fc1cc(-c2cccc3ncc(-c4cnn(C5CCNCC5)c4)nc23)cc(F)c1CN1CCOCC1 | 0.752 | 0.934 | 0.0836 | 0.0828
26 | CC(N)C12CC3CC(CC(C3)C1)C2 (stereo not drawn) [Rimantadine] | 0.969 | 1.09 | 0.803 | 0.978
27 | C[C@H](Oc1cc(-c2cnn(C3CCNCC3)c2)cnc1N)c1c(Cl)ccc(F)c1Cl [(S)-crizotinib] | 0.732 | 0.725 | 0.134 | 0.0936
28 | CN(C)CCOC(=O)COc1ccc(Cl)cc1 [Meclofenoxate (Centrophenoxine) HCl] | 0.925 | 1.23 | 0.853 | 1.25
29 | Brc1c(NC2=NCCN2)ccc2nccnc12 [Brimonidine Tartrate] | 0.978 | 1.12 | 0.889 | 1.09
30 | NCc1c[nH]c(=S)n1[C@@H]1CCc2c(F)cc(F)cc2C1 [(R)-Nepicastat HCl] | 0.808 | 1.17 | 0.847 | 1
31 | Cc1ccc2c(Cl)cc(Cl)c(O)c2n1 [Chlorquinaldol] | 0.458 | 0.733 | 0.261 | 0.305
32 | N=C(N)N/N=C/c1c(Cl)cccc1Cl [Guanabenz Acetate] | 0.975 | 1.14 | 0.845 | 1.05
33 | CCCCC[C@H](O)/C=C/[C@H]1[C@H](O)CC(=O)[C@@H]1CCCCCCC(=O)O [Alprostadil] | 0.953 | 0.991 | 0.888 | 1.07
34 | NC1=N[C@@](c2cccc(-c3cncnc3)c2)(c2ccnc(C(F)F)c2)c2cccc(F)c21 | 0.851 | 1.01 | 0.765 | 0.736
35 | CC[C@@H]([C@H](C)O)n1ncn(-c2ccc(N3CCN(c4ccc(OC[C@@H]5CO[C@@](Cn6cncn6)(c6ccc(F)cc6F)C5)cc4)CC3)cc2)c1=O [Posaconazole] | 0.919 | 1.13 | 0.868 | 1.05
36 | O=C(O)c1ccccc1 [Benzoic Acid] | 0.793 | 0.98 | 0.581 | 0.958
37 | O=C(c1ccc(OCCCc2c[nH]cn2)cc1)C1CC1 [Ciproxifan] | 1.29 | 1.22 | 1.12 | 1.12
38 | CC(C)[C@H](N)C(=O)OCC(CO)OCn1cnc2c(=O)[nH]c(N)nc21 (stereo partly drawn) [Valganciclovir HCl] | 0.99 | 1.1 | 0.78 | 0.988

Row | Compound | fractional viability [1] | fractional viability [2] | fractional viability [3] | fractional viability [4]
39 | CN1CCC[C@@H]1CCO[C@](C)(c1ccccc1)c1ccc(Cl)cc1 [Clemastine Fumarate] | 0.829 | 1.1 | 0.515 | 0.619
40 | CCOc1ccc(NC(C)=O)cc1 [Phenacetin] | 1.08 | 1.06 | 0.828 | 1.01
41 | COc1cc2ncnc(Nc3ccc(F)c(Cl)c3)c2cc1OCCCN1CCOCC1 [Gefitinib (ZD1839)] | 1 | 1.11 | 0.492 | 0.555
42 | CN1CCN(c2nc(C3=C(c4c[nH]c5ccccc45)C(=O)NC3=O)c3ccccc3n2)CC1 [Sotrastaurin] | 1.03 | 1.06 | 0.516 | 0.919
43 | CC(C(=O)O)c1ccc(C(=O)c2cccs2)cc1 (stereo not drawn) [Suprofen] | 0.976 | 1.12 | 0.964 | 1.08
44 | CN(C)CCCCC(=O)Nc1ccc(NC(=S)NC(=O)c2ccc(C(C)(C)C)cc2)cc1 [Tenovin-6] | 0.503 | 0.659 | 0.0825 | 0.0651
45 | C=C(c1ccc(C(=O)O)cc1)c1cc2c(cc1C)C(C)(C)CCC2(C)C [Bexarotene] | 0.94 | 1.25 | 0.777 | 0.974
46 | CC[N+](CC)(CC)CCOc1cccc(OCC[N+](CC)(CC)CC)c1OCC[N+](CC)(CC)CC [Gallamine Triethiodide] | 0.926 | 0.996 | 0.802 | 1.08
47 | Cc1ccccc1N=Nc1ccc(NC(=O)c2ccnn2C)c(C)c1 | 0.879 | 0.844 | 0.918 | 0.779
48 | Cc1c[nH]c(/C=C2\C(=O)Nc3ccccc32)c1CCC(=O)O | 0.91 | 0.936 | 0.874 | 0.784
49 | CCc1oc2ccccc2c1C(=O)c1cc(Br)c(O)c(Br)c1 [Benzbromarone] | 0.864 | 1.1 | 0.83 | 1.04
50 | CC/C(=C(\c1ccccc1)c1ccc(OCCN(C)C)cc1)c1ccccc1 [Tamoxifen Citrate] | 1.12 | 1.15 | 0.512 | 0.689
51 | Cn1cc(-c2ccc(S(=O)(=O)n3ccc(/C=C/C(=O)Nc4ccccc4N)c3)cc2)cn1 | 0.114 | 0.18 | 0.0985 | 0.136
52 | Cc1cnc(C(=O)O)c[n+]1[O-] [Acipimox] | 1.06 | 0.95 | 1.03 | 0.941
53 | COc1ccc(C2=N[C@H](c3ccc(Cl)cc3)[C@H](c3ccc(Cl)cc3)N2C(=O)N2CCNC(=O)C2)c(OC(C)C)c1 [Nutlin-3b] | 0.73 | 0.879 | 0.524 | 0.709
54 | O=C(Nc1ccc([N+](=O)[O-])cc1O)Nc1ccccc1Br | 0.258 | 0.266 | 0.172 | 0.109
55 | O=C(c1cncc(Br)c1)N1CCC(N2CCCC2)CC1 | 0.816 | 0.901 | 0.828 | 0.765
56 | O=c1c(O)c(-c2ccc(O)c(O)c2)oc2cc(O)cc(O)c12 [Quercetin] | 1.03 | 1.17 | 0.869 | 1.07
57 | O=c1c(O)c(-c2ccc(O)c(O)c2)oc2cc(O)cc(O)c12 [Quercetin Dihydrate] | 1.01 | 1.11 | 0.971 | 1.17
